Assay results published in ChEMBL document CHEMBL4888484, “Replenishing the malaria drug discovery pipeline: Screening and hit evaluation of the MMV Hit Generation Library 1 (HGL1) against asexual blood stage Plasmodium falciparum ,using a nano luciferase reporter read-out” (2022).
“And” between values parts separate entries of the source, which are not always exact repeats. Identical values can stand only once. About 540 (0.36%) of roughly 150,000 compounds showed an effect of 50% or more. The list shows a part of the results.

Tested on: Plasmodium falciparum
Test: Primary screen in NF54 nanoGlo assay, in single point, at 2uM, 72h; a lower Z score goes with more inhibition
Type: functional, Erythrocyte
Conditions: timepoint 72 hour

## NC(=O)[C@]1(O)CCN(C(=O)Nc2ccc3c(c2)C(=O)CCCC3)C1
  % Inhibition: -11%
  Z score: 2.23

## CCN(Cc1cnn(CC)c1)C(=O)c1cn2c(n1)C(=O)N(CC)CC2
  % Inhibition: -7%
  Z score: 0.92

## O[C@H]1CCN(c2ccnc(N3CCC4(CCCO4)CC3)n2)C1
  % Inhibition: 0%
  Z score: 0.06

## O=C1C[C@H](c2nc(-c3ccc(Oc4ccccc4)cc3)c[nH]2)CN1
  % Inhibition: 2%
  Z score: -0.25

## Cc1cnn(C2CCCN(C(C)C(=O)Nc3cc(F)ccc3F)C2)c1 (stereo unspecified)
  % Inhibition: 4%
  Z score: -0.72

## CC1CC(c2ccccc2)CN1C(=O)NCCc1ccn(C)n1 (stereo unspecified)
  % Inhibition: -7%
  Z score: 0.94

## O=C(Cc1nnc(-c2cccnc2)[nH]1)NCc1ccccn1
2 µM
  % Inhibition: -11% and -13%
  Z score: 1.37 and 1.29

## CCOC1(C)CCN(c2cc(C(C)C)nc3ncnn23)CC1
  % Inhibition: -10%
  Z score: 1.25

## CNC(=O)CC(=O)N1CCCCC[C@@H]1CC(=O)c1ccccc1
  % Inhibition: -13%
  Z score: 2.39

## O=C1NCCOc2cc(F)c(Br)cc21
  % Inhibition: -10%
  Z score: 1.48

## CN(C)C(=O)CS(=O)(=O)c1ccccc1
  % Inhibition: -1%
  Z score: 0.15

## COc1cc(S(=O)(=O)NC(C)C)c(S(=O)(=O)NC(C)C)c(OC)c1OC
  % Inhibition: -11%
  Z score: 1.24

## O=C(Nc1c(-c2ccc(C(F)(F)F)cc2)n[nH]c1C1CC1)c1ccc(F)cc1
  % Inhibition: -3%
  Z score: 0.54

## CCCN1C(=O)c2cc(C(=O)Nc3ccc(OC)cc3OC)ccc2[C@H]1Nc1ccc(OC)cc1OC
  % Inhibition: -11%
  Z score: 1.42

## C[C@@H]1Oc2ccc(NC(=O)c3cccc(S(=O)(=O)NCc4ccc5c(c4)OCO5)c3)cc2NC1=O
  % Inhibition: -2%
  Z score: 0.33

## CCO[C@@H](C)c1nc(CN(C)Cc2ncnn2C)cs1
  % Inhibition: -1%
  Z score: 0.09

## CN(C)Cc1cn(C[C@H]2C[C@@H](NC(=O)Nc3ccc4c(c3)OCCO4)[C@H](O)[C@@H]2O)nn1
  % Inhibition: 42%
  Z score: -4.8

## COC(=O)NC(N1CCCC1=O)(C(F)(F)F)C(F)(F)F
  % Inhibition: -11%
  Z score: 1.24

## CCC(C)(C)c1nnc(NC(=O)CC(C)C)s1
  % Inhibition: 6%
  Z score: -1.01

## O=C(C[C@H]1CCCN(c2cn[nH]c(=O)c2)C1)NCc1cccc(Cl)c1
  % Inhibition: -11%
  Z score: 1.42

## O=C(N[C@@H]1CN(Cc2cccc(F)c2)CC[C@@H]1CO)c1ccccc1
  % Inhibition: -16%
  Z score: 2.13

## CC(C)CCNC(=O)N1CCC[C@H](Oc2nc(C3CC3)nc3c2CCOCC3)C1
  % Inhibition: -8%
  Z score: 0.76

## Cc1cc([C@@H](O)CCNC(=O)c2ccco2)c(C)o1
  % Inhibition: -9%
  Z score: 1.15

## CCC[C@H](C)NC(=O)c1cc(Cl)ccc1OC
  % Inhibition: -7%
  Z score: 0.92

## O=C1NC[C@@H](C(=O)NCCc2cccc(F)c2F)O1
  % Inhibition: -7%
  Z score: 1.08

## Nc1ncc(Cl)cc1S(=O)(=O)N1CC2(CCOC2)C1
  % Inhibition: 5%
  Z score: -0.83

## C[C@H](NCc1ncnn1C)c1ccc(F)cc1Cl
  % Inhibition: -6%
  Z score: 0.68

## CC(C)n1ccnc1C(=O)N1CC[C@H](OC(=O)N(C)C)C1
  % Inhibition: -15%
  Z score: 2.83

## CC[C@H](Oc1ccc(C)cc1)C(=O)NC
  % Inhibition: 30%
  Z score: -3.44

## CCNC(=O)[C@@H]1CCCN1C(=O)Nc1cc(C(=O)OC)ccc1C
  % Inhibition: -7%
  Z score: 1.22

## c1ccc(-n2ncc3c2CCC[C@@H]3NCc2cc3ccccc3s2)nc1
  % Inhibition: -8%
  Z score: 1.42

## CCCNC(=O)C(CC)Oc1ccc2c(c1)C(c1ccc(F)cc1)N(C(=O)C1CCCC1)CC2 (stereo unspecified)
  % Inhibition: 2%
  Z score: -0.34

## Cc1ccccc1Cn1cnc(CNC(=O)OC(C)(C)C)c1
  % Inhibition: 2%
  Z score: -0.27

## C[C@@H](C(=O)NCc1ccccc1)S(=O)(=O)Cc1cc(Cl)c2c(c1)OCCCO2
  % Inhibition: -1%
  Z score: 0.28

## O=C(NS(=O)(=O)c1cccnc1)C1CC1c1cccc(F)c1F (stereo unspecified)
  % Inhibition: 0%
  Z score: 0

## NC(=O)c1csc(CNCc2ccc(Cn3cccn3)cc2)c1
  % Inhibition: -10%
  Z score: 1.39

## Cc1cnc(CNC(=O)[C@H]2OCC[C@H]2Cn2cccn2)c(C)c1
  % Inhibition: -17%
  Z score: 3.09

## CCOc1ccc(NC(=O)CCc2cccc3[nH]ccc23)cc1
  % Inhibition: -1%
  Z score: 0.16

## CCOC(=O)c1ccc(NC(=O)CC2C(=O)OCC3CCCCN32)cc1 (stereo unspecified)
  % Inhibition: -1%
  Z score: 0.22

## CC(C)(C)C(NC(=O)CC1CC(=O)NC1=O)C(F)(F)F (stereo unspecified)
  % Inhibition: 4%
  Z score: -0.68

## O=C(NCCC1CCOCC1)c1ccncc1
  % Inhibition: -9%
  Z score: 1.86

## CCc1nc(CN(C)Cc2ccon2)no1
  % Inhibition: -15%
  Z score: 1.41

## CC(C)N1CCNC(=O)[C@@H]1CC(=O)NCc1cn[nH]c1-c1cccs1
  % Inhibition: -18%
  Z score: 2.39

## O=C(NC1CCN(CC2CC2)CC1)c1cnc(Oc2ccccc2)cn1
  % Inhibition: -4%
  Z score: 0.69

## CCCNC(=O)c1nn(-c2cccc(C)c2)c(=O)n(CCC)c1=O
  % Inhibition: -11%
  Z score: 1.07

## O=C(c1cc(OCc2ccccc2)no1)N1CCCCC1
  % Inhibition: -13%
  Z score: 2.45

## CN(C)CCNC(=O)C1C(c2cccc(NC(=O)c3ccccc3F)c2)OC(=O)N1Cc1cccc(Cl)c1 (stereo unspecified)
  % Inhibition: -9%
  Z score: 1.81

## O=C(Cc1cccnc1)NC[C@H]1CCCN(C(=O)c2cccc3cc[nH]c23)C1
  % Inhibition: 2%
  Z score: -0.37

## CS(=O)(=O)c1ccc(C(=O)N2CC3(CCC3)[C@@H]2C2CC2)s1
  % Inhibition: -9%
  Z score: 1.72

## Cc1ncsc1C(=O)N1CCN(c2ccc(C3CC3)nn2)CC1
  % Inhibition: 14%
  Z score: -1.84

## C=CCN1C[C@H](C)N(C(=O)c2ccnn2C)C[C@@H]1C
  % Inhibition: -8%
  Z score: 1.36

## Cc1cc(C(=O)N2C[C@@H]3CC[C@H]2CN(C(=O)N(C)C)C3)no1
  % Inhibition: -4%
  Z score: 0.76

## CC(C)c1nc(CNc2ccc(C#N)cn2)cs1
  % Inhibition: 14%
  Z score: -1.64

## Cc1c(Cl)cccc1NC(=O)CCNCc1ccncc1
  % Inhibition: 5%
  Z score: -0.77

## C=CCN1CC[C@@]2(CCC1=O)CN(S(=O)(=O)N1CCCC1)CCN2C
  % Inhibition: -7%
  Z score: 0.71

## O=C1CS(=O)(=O)[C@]2(CCS(=O)(=O)C2)N1c1ccccc1
  % Inhibition: -5%
  Z score: 0.67

## O=C1[C@@H]2C3CCCN3C3(C(=O)Nc4ccc(Br)cc43)[C@@H]2C(=O)N1CCc1ccccc1 (stereo partly specified)
  % Inhibition: -9%
  Z score: 1.2

## COC(=O)CN1CCN(C(=O)c2cnc(-c3ccccc3)nc2)[C@@H](C)C1=O
  % Inhibition: -2%
  Z score: 0.33

## CN(C(=O)Cn1cc(S(=O)(=O)N2CCOCC2)ccc1=O)c1ccccc1
  % Inhibition: -6%
  Z score: 1.22

## CN(C(=O)[C@@H]1COc2cc(F)ccc2C1)C1(CN)CCC1
  % Inhibition: -10%
  Z score: 1.24

## c1cn(-c2cc(-c3noc(-c4ccoc4)n3)ccn2)cn1
  % Inhibition: -4%
  Z score: 0.34

## CO[C@@H]1COC[C@H]1n1cc(CNS(=O)(=O)CC(C)(C)OC)nn1
  % Inhibition: 9%
  Z score: -1.07

## Cc1nc([C@@]2(CC3CC3)CCCN(S(=O)(=O)c3ccccc3Cl)C2)no1
  % Inhibition: -6%
  Z score: 0.8

## O=C(COc1cc(Cl)cc(Cl)c1)N[C@@H](Cc1nnc[nH]1)c1ccccc1
  % Inhibition: -7%
  Z score: 1.06

## O=S1(=O)N(Cc2ccccc2Cl)c2ccccc2N1C1CC1
  % Inhibition: -9%
  Z score: 1.1

## COc1ccc(-c2nn(-c3ccccc3F)cc2CN2CCOCC2)cc1
  % Inhibition: -19%
  Z score: 3.28

## COc1ccc(CCc2n[nH]c(C)c2NC(=O)c2cccc(Cl)c2)cc1
  % Inhibition: -1%
  Z score: 0.15

## CCCCCc1nc([C@H](C)N2CCN(C)CC2)n(-c2cc(C)ccn2)n1
  % Inhibition: -3%
  Z score: 0.42

## Cc1cc(N2CC[C@H](Oc3cncc(Br)c3)C2)ncn1
  % Inhibition: -17%
  Z score: 3.19

## CC(C)[C@@]1(O)CN(C(=O)c2onc3c2CCCC3)C[C@@H]1C
  % Inhibition: -14%
  Z score: 2.61

## COc1ccc(-c2ccc(N3CCN(C(=O)CN(Cc4ccccc4)C(=O)NC(C)C)CC3)nn2)cc1OC
  % Inhibition: -35%
  Z score: 3.1

## CCn1cc(C(=O)OC2(C3CC3)CC2)cn1
  % Inhibition: -9%
  Z score: 1.44

## CCCN1CCN(C(=O)c2cc(NC(=O)COC)cc3nc(-c4ccncc4)n(C)c23)CC1
  % Inhibition: 2%
  Z score: -0.42

## COCCCn1c(C)c(C)c(S(=O)(=O)c2ccccc2)c1NC(=O)CC(C)C
  % Inhibition: -16%
  Z score: 2.15

## CC(C)=CCNC(=O)N[C@H]1CCCOCC1
  % Inhibition: -9%
  Z score: 0.92

## CCCc1nc(-c2nc(CCOC)no2)cs1
  % Inhibition: -9%
  Z score: 1.13

## Cc1cccc(C(=O)Nc2c(N3CCCCC3)c(-c3cccc(F)c3)nn2C)c1
  % Inhibition: -1%
  Z score: 0.13

## O=C(NC1CC1)c1nn(-c2cccc(Cl)c2)c(=O)n(Cc2cccc(F)c2)c1=O
  % Inhibition: -5%
  Z score: 0.71

## O=C([C@@H]1CCC(=O)N1S(=O)(=O)c1ccccc1)N1CCc2ccccc2C1
  % Inhibition: -9%
  Z score: 1.26

## CCCCOc1ccc(C(=O)Nc2ccc(N3CCC(C)CC3)c(C(=O)NCc3ccc(F)cc3)c2)cc1
  % Inhibition: -13%
  Z score: 1.93

## CN(c1cncc(C(=O)NCCC2=CCCCC2)c1)S(=O)(=O)c1ccccc1
  % Inhibition: -9%
  Z score: 1.76

## Cc1nnsc1C(=O)NCCn1ccnc1C1CC1
  % Inhibition: 13%
  Z score: -1.69

## O=C(Cn1c(=O)ncc2c1cnn2[C@H]1CCS(=O)(=O)C1)N1CCCc2ccccc21
  % Inhibition: -9%
  Z score: 1.21
